In PubChem BioAssay (NCI):
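Test compounds were applied to cells in 96-well plates for 48 hours at 5 doses. GI50 = concentration required for 50% inhibition of growth.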 Not every entry of the source has a single result; some have several. The list is limited to them. The source may hold further records. Records of one sample usually come from different ranges of test concentrations, not given here; some values may only mark the edge of a range. What stands in brackets tells the records apart. The letters are not those of the source and start again with each entry.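 TGI is the concentration that stops growth completely.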

Legend:
Experiment in all cases: NCI tumour cell line growth inhibition, 48 h
HCT-15 colon = tested on: HCT-15 colon
NCI-H23 lung = tested on: NCI-H23 lung
HL-60(TB) leukemia = tested on: HL-60(TB) leukemia
K-562 leukemia = tested on: K-562 leukemia
SK-OV-3 ovarian = tested on: SK-OV-3 ovarian
SN12C renal = tested on: SN12C renal
SR leukemia = tested on: SR leukemia
RPMI-8226 leukemia = tested on: RPMI-8226 leukemia
MDA-MB-231 breast = tested on: MDA-MB-231 breast
UACC-62 melanoma = tested on: UACC-62 melanoma
CCRF-CEM leukemia = tested on: CCRF-CEM leukemia
COLO 205 colon = tested on: COLO 205 colon
MCF7 breast = tested on: MCF7 breast
SK-MEL-28 melanoma = tested on: SK-MEL-28 melanoma
MALME-3M melanoma = tested on: MALME-3M melanoma
OVCAR-3 ovarian = tested on: OVCAR-3 ovarian
CAKI-1 renal = tested on: CAKI-1 renal
SF-539 CNS = tested on: SF-539 CNS
SF-268 CNS = tested on: SF-268 CNS
RXF 393 renal = tested on: RXF 393 renal
OVCAR-4 ovarian = tested on: OVCAR-4 ovarian
UACC-257 melanoma = tested on: UACC-257 melanoma
SNB-78 CNS = tested on: SNB-78 CNS
EKVX NSCLC = tested on: EKVX NSCLC
U251 CNS = tested on: U251 CNS
SK-MEL-5 melanoma = tested on: SK-MEL-5 melanoma
XF 498 CNS = tested on: XF 498 CNS
SF-295 CNS = tested on: SF-295 CNS
SK-MEL-2 melanoma = tested on: SK-MEL-2 melanoma
SNB-19 CNS = tested on: SNB-19 CNS
MOLT-4 leukemia = tested on: MOLT-4 leukemia
HCC-2998 colon = tested on: HCC-2998 colon
TK-10 renal = tested on: TK-10 renal
DMS 273 small cell lung = tested on: DMS 273 small cell lung
HT29 colon = tested on: HT29 colon
786-0 renal = tested on: 786-0 renal
NCI-H226 lung = tested on: NCI-H226 lung
DLD-1 colon = tested on: DLD-1 colon
M14 melanoma = tested on: M14 melanoma
HOP-62 NSCLC = tested on: HOP-62 NSCLC
NCI-H522 lung = tested on: NCI-H522 lung
OVCAR-5 ovarian = tested on: OVCAR-5 ovarian
NCI-H460 lung = tested on: NCI-H460 lung
SNB-75 CNS = tested on: SNB-75 CNS
KM12 colon = tested on: KM12 colon
HOP-92 NSCLC = tested on: HOP-92 NSCLC
M19-MEL melanoma = tested on: M19-MEL melanoma
A498 renal = tested on: A498 renal
HCT-116 colon = tested on: HCT-116 colon
NCI/ADR-RES ovarian = tested on: NCI/ADR-RES ovarian
DU-145 prostate = tested on: DU-145 prostate
KM20L2 colon = tested on: KM20L2 colon
P388 leukemia = tested on: P388 leukemia

## Cc1ccnc2[nH]c(-c3ccccc3)cc(=O)c12
HCT-15 colon
  TGI: 182 nM and 3.67 µM
NCI-H23 lung
  TGI: 152 nM and > 100 µM
HL-60(TB) leukemia
  TGI: 5.68 nM and > 100 µM
K-562 leukemia
  TGI: 93.7 nM and > 100 µM
SK-OV-3 ovarian
  TGI: 133 nM and > 100 µM
SN12C renal
  TGI: 2.04 µM and > 100 µM
SR leukemia
  TGI: 366 nM and > 100 µM
RPMI-8226 leukemia
  TGI: 4.01 µM and > 100 µM
MDA-MB-231 breast
  TGI: 9.31 µM and > 100 µM
UACC-62 melanoma
  TGI: 56.4 nM and > 100 µM
CCRF-CEM leukemia
  TGI: 86.2 nM and > 100 µM
COLO 205 colon
  TGI: 20.1 nM and 1.64 µM

## COc1cc2c[n+](C)c3c4ccccc4ccc3c2cc1OC (tested in a mixture with another compound)
MCF7 breast
  TGI: 9.09 µM and > 100 µM
K-562 leukemia
  TGI: 7.9 µM and > 100 µM
SR leukemia
  TGI: 2.91 µM and 74.2 µM
RPMI-8226 leukemia
  TGI: 5.16 µM and > 76.1 µM

## CCN(CCCl)CCCNc1c2ccccc2nc2ccc(OC)cc12
NCI-H23 lung
  TGI: 1.04 µM and 1.75 mM
SK-MEL-28 melanoma
  TGI: 2.08 µM and 1.68 mM
MALME-3M melanoma
  TGI: 1.84 µM and 1.46 mM
OVCAR-3 ovarian
  TGI: 2.5 µM and 526 µM
CAKI-1 renal
  TGI: 1.49 µM and 844 µM
HL-60(TB) leukemia
  TGI: 273 nM and 1.26 mM
SF-539 CNS
  TGI: 1.63 µM and 1.92 mM
SF-268 CNS
  TGI: 1.94 µM and 2.09 mM
RXF 393 renal
  TGI: 1.16 µM and 1.2 mM
OVCAR-4 ovarian
  TGI: 2.59 µM and 1.36 mM
UACC-257 melanoma
  TGI: 2.64 µM and 1.32 mM
K-562 leukemia
  TGI: 10.5 µM and 1.01 mM
SNB-78 CNS
  TGI: 3.06 µM and 5.66 mM
EKVX NSCLC
  TGI: 3.18 µM and 1.66 mM
SK-OV-3 ovarian
  TGI: 2.31 µM and 1.68 mM
U251 CNS
  TGI: 1.53 µM and 2.41 mM
SN12C renal
  TGI: 1.61 µM and 817 µM
SK-MEL-5 melanoma
  TGI: 1.74 µM and 1.56 mM
XF 498 CNS
  TGI: 838 nM and 888 µM
SF-295 CNS
  TGI: 1.74 µM and 1.72 mM
SK-MEL-2 melanoma
  TGI: 2.19 µM and 1.25 mM
SNB-19 CNS
  TGI: 2.27 µM and 1.58 mM
MOLT-4 leukemia
  TGI: 259 nM and 500 µM
HCC-2998 colon
  TGI: 1.81 µM and 953 µM
TK-10 renal
  TGI: 4.54 µM and 2.8 mM
DMS 273 small cell lung
  TGI: 1.17 µM and 1.24 mM
HT29 colon
  TGI: 1.63 µM and 1.34 mM
786-0 renal
  TGI: 1.52 µM and 735 µM
UACC-62 melanoma
  TGI: 1.39 µM and 815 µM
NCI-H226 lung
  TGI: 723 nM and 2.41 mM
DLD-1 colon
  TGI: 1.59 µM and 1.36 mM
M14 melanoma
  TGI: 1.99 µM and 769 µM
HOP-62 NSCLC
  TGI: 2.81 µM and 1.12 mM
NCI-H522 lung
  TGI: 1.61 µM and 712 µM
OVCAR-5 ovarian
  TGI: 1.66 µM and 1.25 mM
NCI-H460 lung
  TGI: 1.62 µM and 803 µM
SNB-75 CNS
  TGI: 2.24 µM and 1.49 mM
CCRF-CEM leukemia
  TGI: 869 nM and 1.07 mM
KM12 colon
  TGI: 1.47 µM and 1.52 mM
HOP-92 NSCLC
  TGI: 711 nM and 993 µM
M19-MEL melanoma
  TGI: 1.42 µM and 1.12 mM

## COc1ccc(/C=C\c2cc(OC)c(OC)c(OC)c2)cc1OC(=O)CCC(=O)O
A498 renal
  TGI: < 0.1 nM and 86.2 µM
OVCAR-3 ovarian
  TGI: < 0.1 nM and > 100 µM
K-562 leukemia
  TGI: < 0.1 nM and > 100 µM
SK-MEL-5 melanoma
  TGI: < 0.1 nM and 20.4 µM
MOLT-4 leukemia
  TGI: < 0.1 nM and > 100 µM
HCT-116 colon
  TGI: < 0.1 nM and > 100 µM
MDA-MB-231 breast
  TGI: < 0.1 nM and > 100 µM
UACC-62 melanoma
  TGI: < 0.1 nM and > 100 µM
M14 melanoma
  TGI: < 0.1 nM and > 100 µM
NCI/ADR-RES ovarian
  TGI: < 0.1 nM and 23.9 µM
DU-145 prostate
  TGI: < 0.1 nM and > 100 µM

## NC(=O)C#CC(N)=O
KM20L2 colon
  GI50: > 100 µM [sample A, mean of 2 tests] and 44.9 µM [sample B, 1 test] and 2.08 µM [sample B, mean of 2 tests]
  TGI: > 100 µM [sample A, mean of 2 tests] and 165 µM [sample B, 1 test] and 3.94 µM [sample B, mean of 2 tests]
SF-268 CNS
  GI50: 15.4 µM and > 875 µM
  TGI: > 100 µM [sample A] and 31.6 µM, > 875 µM [sample B]
P388 leukemia
  GI50: 1.68 µM and 87.5 nM
  TGI: 4.74 µM and 406 nM
CCRF-CEM leukemia
  TGI: 13.9 µM [sample A] and 5.15 µM, 57.9 µM [sample B]
